{"source": "the supplement of paper PMC8728848", "test_in_all_cases": "glycan array binding signal (z-score within array); higher = stronger binding", "conditions_in_all_cases": "glycan notation: IUPAC condensed, linker removed", "key": {"Gal(b1-4)GlcNAc(b1-2)Man": {"target": "Gal(b1-4)GlcNAc(b1-2)Man", "method_in_brief": "(§1)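 From the Consortium for Functional Glycomics database, 3228 arrays were curated, keeping only those whose protein sequence was available. Binding is given as a within-array Z-score averaged across arrays sharing a protein sequence and across linkers. Negative Z-scores can be read as non-binding.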"}, "[1]": {"target": "Gal(b1-4)GlcNAc(b1-2)Man(a1-3)Man(b1-4)GlcNAc(b1-4)GlcNAc", "method_in_brief": "as §1"}, "[2]": {"target": "Gal(b1-4)GlcNAc(b1-2)Man(a1-3)[Gal(b1-4)GlcNAc(b1-2)Man(a1-6)]Man(b1-4)GlcNAc(b1-4)GlcNAc", "method_in_brief": "as §1"}, "[3]": {"target": "Gal(b1-4)GlcNAc(b1-2)Man(a1-3)[Gal(b1-4)GlcNAc(b1-2)Man(a1-6)]Man(b1-4)GlcNAc(b1-4)[Fuc(a1-6)]GlcNAc", "method_in_brief": "as §1"}, "[4]": {"target": "Gal(b1-4)GlcNAc(b1-2)Man(a1-3)[Gal(b1-4)GlcNAc(b1-2)Man(a1-6)][Gal(b1-4)GlcNAc(b1-4)]Man(b1-4)GlcNAc(b1-4)[Fuc(a1-6)]GlcNAc", "method_in_brief": "as §1"}, "[5]": {"target": "Gal(b1-4)GlcNAc(b1-2)Man(a1-3)[Gal(b1-4)GlcNAc(b1-2)Man(a1-6)][GlcNAc(b1-4)]Man(b1-4)GlcNAc(b1-4)[Fuc(a1-6)]GlcNAc", "method_in_brief": "as §1"}, "[6]": {"target": "Gal(b1-4)GlcNAc(b1-2)Man(a1-3)[Gal(b1-4)GlcNAc(b1-2)][GlcNAc(b1-4)]Man(b1-4)GlcNAc(b1-4)GlcNAc", "method_in_brief": "as §1"}, "[7]": {"target": "Gal(b1-4)GlcNAc(b1-2)Man(a1-3)[GlcNAc(b1-2)Man(a1-6)]Man(b1-4)GlcNAc(b1-4)GlcNAc", "method_in_brief": "as §1"}, "[8]": {"target": "Gal(b1-4)GlcNAc(b1-2)Man(a1-3)[GlcNAc(b1-4)][Gal(b1-4)GlcNAc(b1-2)Man(a1-6)]Man(b1-4)GlcNAc(b1-4)GlcNAc", "method_in_brief": "as §1"}, "[9]": {"target": "Gal(b1-4)GlcNAc(b1-2)Man(a1-3)[Man(a1-6)]Man(b1-4)GlcNAc(b1-4)GlcNAc", "method_in_brief": "as §1"}, "[10]": {"target": "Gal(b1-4)GlcNAc(b1-2)Man(a1-6)Man(b1-4)GlcNAc(b1-4)GlcNAc", "method_in_brief": "as §1"}, "[11]": {"target": "Gal(b1-4)GlcNAc(b1-2)Man(a1-6)[GlcNAc(b1-2)Man(a1-3)]Man(b1-4)GlcNAc(b1-4)GlcNAc", "method_in_brief": "as §1"}, "[12]": {"target": "Gal(b1-4)GlcNAc(b1-2)Man(a1-6)[Man(a1-3)]Man(b1-4)GlcNAc(b1-4)GlcNAc", "method_in_brief": "as §1"}, "[13]": {"target": "Gal(b1-4)GlcNAc(b1-2)[Gal(b1-4)GlcNAc(b1-4)]Man(a1-3)[Gal(b1-4)GlcNAc(b1-2)Man(a1-6)]Man(b1-4)GlcNAc(b1-4)GlcNAc", "method_in_brief": "as §1"}, "[14]": {"target": "Gal(b1-4)GlcNAc(b1-2)[Gal(b1-4)GlcNAc(b1-4)]Man(a1-3)[Gal(b1-4)GlcNAc(b1-2)[Gal(b1-4)GlcNAc(b1-6)]Man(a1-6)]Man(b1-4)GlcNAc(b1-4)GlcNAc", "method_in_brief": "as §1"}, "[15]": {"target": "Gal(b1-4)GlcNAc(b1-2)[Gal(b1-4)GlcNAc(b1-4)]Man(a1-3)[GlcNAc(b1-4)][Gal(b1-4)GlcNAc(b1-2)Man(a1-6)]Man(b1-4)GlcNAc(b1-4)GlcNAc", "method_in_brief": "as §1"}, "[16]": {"target": "Gal(b1-4)GlcNAc(b1-2)[Gal(b1-4)GlcNAc(b1-4)]Man(a1-3)[GlcNAc(b1-4)][Gal(b1-4)GlcNAc(b1-2)[Gal(b1-4)GlcNAc(b1-6)]Man(a1-6)]Man(b1-4)GlcNAc(b1-4)GlcNAc", "method_in_brief": "as §1"}, "[17]": {"target": "Gal(b1-4)GlcNAc(b1-2)[Gal(b1-4)GlcNAc(b1-6)]Man(a1-6)[Gal(b1-4)GlcNAc(b1-2)Man(a1-3)]Man(b1-4)GlcNAc(b1-4)GlcNAc", "method_in_brief": "as §1"}, "[18]": {"target": "Gal(b1-4)GlcNAc(b1-2)[Gal(b1-4)GlcNAc(b1-6)]Man(a1-6)[Gal(b1-4)GlcNAc(b1-2)Man(a1-3)]Man(b1-4)GlcNAc(b1-4)[Fuc(a1-6)]GlcNAc", "method_in_brief": "as §1"}, "[19]": {"target": "Gal(b1-4)GlcNAc(b1-2)[Gal(b1-4)GlcNAc(b1-6)]Man(a1-6)[GlcNAc(b1-4)][Gal(b1-4)GlcNAc(b1-2)Man(a1-3)]Man(b1-4)GlcNAc(b1-4)GlcNAc", "method_in_brief": "as §1"}, "[20]": {"target": "Gal(b1-4)GlcNAc(b1-2)[Gal(b1-4)GlcNAc(b1-6)]Man(a1-6)[GlcNAc(b1-4)][Gal(b1-4)GlcNAc(b1-2)[Gal(b1-4)GlcNAc(b1-4)]Man(a1-3)]Man(b1-4)GlcNAc(b1-4)[Fuc(a1-6)]GlcNAc", "method_in_brief": "as §1"}, "[21]": {"target": "Gal(b1-4)GlcNAc(b1-3)Gal(b1-3)GalNAc", "method_in_brief": "as §1"}}, "note": "The list shows a part of the results."}
{"binder": "PA-IL (Pseudomonas aeruginosa), Q05097 (protein) MAWKGEVLANNEAGQVTSIIYNPGDVITIVAAGWASYGPTQKWGPQGDREHPDQGLICHDAFCGALVMKIGNSGTIPVNTGLFRWVAPNNVQGAITLIYNDVPGTYGNNSGSFSVNIGKDQS", "values": [{"measurement": "glycan array binding signal (z-score)", "setting": "Gal(b1-4)GlcNAc(b1-2)Man", "result": -0.216}, {"measurement": "glycan array binding signal (z-score)", "setting": "[1]", "result": -0.232}, {"measurement": "glycan array binding signal (z-score)", "setting": "[2]", "result": -0.23}, {"measurement": "glycan array binding signal (z-score)", "setting": "[3]", "result": -0.228}, {"measurement": "glycan array binding signal (z-score)", "setting": "[4]", "result": -0.242}, {"measurement": "glycan array binding signal (z-score)", "setting": "[5]", "result": -0.231}, {"measurement": "glycan array binding signal (z-score)", "setting": "[6]", "result": -0.226}, {"measurement": "glycan array binding signal (z-score)", "setting": "[7]", "result": -0.217}, {"measurement": "glycan array binding signal (z-score)", "setting": "[8]", "result": -0.237}, {"measurement": "glycan array binding signal (z-score)", "setting": "[9]", "result": -0.228}, {"measurement": "glycan array binding signal (z-score)", "setting": "[10]", "result": -0.222}, {"measurement": "glycan array binding signal (z-score)", "setting": "[11]", "result": -0.22}, {"measurement": "glycan array binding signal (z-score)", "setting": "[12]", "result": -0.237}, {"measurement": "glycan array binding signal (z-score)", "setting": "[13]", "result": -0.216}, {"measurement": "glycan array binding signal (z-score)", "setting": "[14]", "result": -0.228}, {"measurement": "glycan array binding signal (z-score)", "setting": "[15]", "result": -0.234}, {"measurement": "glycan array binding signal (z-score)", "setting": "[16]", "result": -0.227}, {"measurement": "glycan array binding signal (z-score)", "setting": "[17]", "result": -0.24}, {"measurement": "glycan array binding signal (z-score)", "setting": "[18]", "result": -0.237}, {"measurement": "glycan array binding signal (z-score)", "setting": "[19]", "result": -0.221}, {"measurement": "glycan array binding signal (z-score)", "setting": "[20]", "result": -0.222}, {"measurement": "glycan array binding signal (z-score)", "setting": "[21]", "result": -0.241}]}
